Reference: PubChem BioAssay AID588342 (National Center for Advancing Translational Sciences (NCATS), 2011)
In all, about 360,000 compounds went through this assay and about 25,000 (6.9%) were called active. The inconclusive results got no clear call from the source; some entries with a clear call stand among them for comparison. Calls follow the shape of the dose curve; as a rule, active = well fitted inhibition curve with a large enough effect; inconclusive = small, poorly fitted or top-dose-only effect; inactive = flat fitted curve, though single readings scatter. A potency beside an inconclusive call is a rough fit, not a confirmed value.

biological target: Luciferin 4-monooxygenase (Photinus pyralis) (UniProt P08659); experiment: qHTS profiling assay for firefly luciferase inhibitor/activator using purifed enzyme and Km concentrations of substrates (counterscreen for miR-21 project); settings: purified FLuc, luminescence inhibition; series mostly up to 57.5 µM; also: nearly all actives have a fitted effect of over 55% in size
In short: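 Purified P. pyralis luciferase, 10 nM final, with Km-level 10 uM D-luciferin and 10 uM ATP in 50 mM Tris acetate pH 7.5, 10 mM Mg acetate, 0.01% Tween-20, 0.05% BSA; 6-point qHTS titration about 60 µM downward; luminescence read.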
Potency is read from the fitted curve at half-maximal effect; tags tell the direction and shape of the fitted curve.

Sequence of UniProt P08659 (P08659 whole entry, looked up): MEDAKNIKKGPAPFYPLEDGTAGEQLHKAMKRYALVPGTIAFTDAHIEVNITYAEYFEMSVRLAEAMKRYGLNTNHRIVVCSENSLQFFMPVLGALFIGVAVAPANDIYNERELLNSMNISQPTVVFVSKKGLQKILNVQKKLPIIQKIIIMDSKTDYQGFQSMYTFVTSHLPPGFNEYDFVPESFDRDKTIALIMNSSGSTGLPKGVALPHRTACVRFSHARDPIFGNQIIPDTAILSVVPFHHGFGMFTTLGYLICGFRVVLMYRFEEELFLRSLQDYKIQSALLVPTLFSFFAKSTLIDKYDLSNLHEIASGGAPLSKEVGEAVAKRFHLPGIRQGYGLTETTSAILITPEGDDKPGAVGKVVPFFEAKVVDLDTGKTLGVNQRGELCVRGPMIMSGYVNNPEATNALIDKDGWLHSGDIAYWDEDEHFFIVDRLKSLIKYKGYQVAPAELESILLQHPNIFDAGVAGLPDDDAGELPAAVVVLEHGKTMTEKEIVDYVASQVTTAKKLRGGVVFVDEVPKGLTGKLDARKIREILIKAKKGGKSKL

Compound	Potency
CCN(CC)S(=O)(=O)c1cc(OC)c(Cl)cc1OC	inactive
CSc1ccccc1OCc1cc(C(=O)N(C)Cc2ccc3nsnc3c2)no1	inconclusive: 3.38 µM [inhibitor, partial curve]
Cn1cc([N+](=O)[O-])c(C(=O)N/N=C\c2c[nH]c3ccccc23)n1	inconclusive: 23.9 µM [inhibitor, partial curve, poor fit]
CN(C)S(=O)(=O)c1cccc(NC(=O)/C=C/c2ccc(S(=O)(=O)N3CCOCC3)cc2)c1	inactive
CCOCCCNC(=O)c1ccc(OC(C)=O)cc1	inactive
Cc1ccc2nc(-c3ccccc3)cc(C(=O)NCC(c3ccco3)N(C)C)c2c1 (stereo unspecified)	inconclusive: 37.9 µM [inhibitor, single point]
CN(C)c1ccc(-c2nc(-c3cccs3)c(-c3cccs3)[nH]2)cc1	inconclusive: 10.7 µM [inhibitor, partial curve]
CC(/C=C/c1ccccc1F)=N\NC(=O)C(C)C	inconclusive: 30.1 µM [inhibitor, single point]
Cc1cccc(C(c2sc3nc(-c4ccco4)nn3c2O)N2CCN(c3ccccc3F)CC2)c1 (stereo unspecified)	inconclusive: 26.9 µM [inhibitor, partial curve]
O=c1cc(-c2c(O)c3ccccc3n(Cc3ccccc3)c2=O)[nH][nH]1	inconclusive: 19 µM [inhibitor, partial curve, poor fit]
CCn1cc(Br)c(C(=O)Nc2nccs2)n1	inconclusive: 37.9 µM [inhibitor, partial curve, poor fit]
CCc1nnc(NC(=O)c2cccs2)s1	inconclusive: 30.1 µM [inhibitor, single point]
COc1ccc(C(=O)NCC(=O)OCc2ccccc2F)cc1	inconclusive: 26.9 µM [inhibitor, partial curve]
Cc1cc(C(=O)CSc2nnc(-c3cccnc3)n2-c2ccccc2)c(C)n1CC1CCCO1 (stereo unspecified)	active: 19 µM
S=C(N/N=C/c1ccco1)NC1CC2CCC1C2 (stereo unspecified)	active: 19 µM
CCN(C(=O)c1cc2c(=O)n3cccc(C)c3nc2s1)C1CCCCC1	inconclusive: 37.9 µM [inhibitor, single point]
C/C(=N/OC(=O)c1ccccc1Br)c1ccc(C)cc1	active: 2.69 µM
CCc1ccc(-c2nc(CS(=O)CC(=O)NC3CC3)c(C)o2)cc1 (stereo unspecified)	inconclusive: 26.9 µM [inhibitor, partial curve]
CN(C)/C=C1/Oc2c(ccc3ccccc23)C1=O	inconclusive: 26.9 µM [inhibitor, single point]
COc1cc(C(C)=O)ccc1OCC(=O)c1cc(C)n(C2CC2)c1C	inconclusive: 19 µM [inhibitor, partial curve]
Cc1ccc(COc2ccc(/C=N/O)cc2)cc1	active: 5.36 µM
CCc1ccc(NC(=O)c2cc(C(C)C)on2)cc1	active: 1.9 µM
COc1ccc(/C(C)=N/NC(=O)c2ccc(N(C)C)cc2)cc1	inactive

Compound	Potency
COc1ccc(-c2nc(NC(=O)CSc3nnc(C)s3)ns2)cc1	inconclusive: 7.57 µM [inhibitor, partial curve, poor fit]
Oc1ccccc1Nc1ccccn1	inconclusive: 37.9 µM [inhibitor, partial curve, poor fit]
CC(=O)Nc1cccc(Nc2nc3ccccc3n3c(C)nnc23)c1	inconclusive: 37.9 µM [inhibitor, partial curve, poor fit]
C/C=C/Cn1cccc(C(=O)Nc2ccc(OC)cc2)c1=O	active: 23.9 µM
Clc1ccccc1CSc1cc2c(nn1)-c1ccccc1CC2	active: 5.36 µM
CC(C)(C)c1ccc(Cc2n[nH]c(=S)[nH]c2=O)cc1	inconclusive: 26.9 µM [inhibitor, partial curve, poor fit]
CC1=NN(C(N)=S)C(=O)C1N=Nc1c(Br)cc(Br)cc1Br (stereo unspecified)	inconclusive: 21.3 µM [inhibitor, single point]
Cn1ccnc1C(=O)c1cc(SCC(=O)N2CCOCC2)nc2ccccc12	inactive
CN(C)S(=O)(=O)c1ccc(-c2cn3ccccc3n2)cc1	active: 5.36 µM
O=C(Nc1ccc(S(=O)(=O)N2CCOCC2)cc1)c1ccc2ncsc2c1	inconclusive: 26.9 µM [inhibitor, single point]
O=C(Nc1ccc(/C=C/c2nc3ccccc3o2)cc1)c1cccc(C(F)(F)F)c1	inconclusive: 19 µM [inhibitor, partial curve, poor fit]
COc1ccccc1/C=N/NC(=O)c1sc(C)nc1C	inconclusive: 26.9 µM [inhibitor, single point]
CS(=O)(=O)c1cccc(-c2nnc(NC(=O)c3ccc4c(c3)OCCO4)o2)c1	inconclusive: 37.9 µM [inhibitor, partial curve, poor fit]
CC(C)(C)c1ccc(Oc2nc3ccccn3c(=O)c2/C=C(\C#N)c2nc3ccccc3s2)cc1	inconclusive: 9.53 µM [inhibitor, partial curve]
CCOc1ccc(OCCn2c(SCC(=O)O)nc3ccccc32)cc1	inconclusive: 19 µM [inhibitor, partial curve]
O=C(Nc1cccnc1)c1cc(F)c(F)cc1Cl	inactive
COc1ccc2c(c1)CCc1sc(NC(=O)c3ccc(Br)cc3)nc1-2	inconclusive: 10.7 µM [inhibitor, partial curve, poor fit]
NNC(=O)c1cc2sccc2s1	inactive
O=C(Nc1nccs1)c1cncc(Br)c1	inconclusive: 33.8 µM [inhibitor, single point]
CCOC(=O)c1sc(NC(=O)Nc2ccccc2Cl)cc1C	active: 0.426 µM
CSCCC(=O)Nc1nc(-c2ccccn2)cs1	inconclusive: 37.9 µM [inhibitor, partial curve, poor fit]
Cc1ccc(NC(=O)CN2C(=O)S/C(=C/c3ccc(-c4cc(C(=O)O)ccc4C)o3)C2=O)cc1C	inconclusive: 26.9 µM [inhibitor, single point]
CCCN(C(=O)CCNC(=O)c1ccc(Cl)cc1)c1c(N)n(Cc2ccccc2)c(=O)[nH]c1=O	inactive
